This is an account of results in the supplement of paper PMC9446081.

The campaign covered roughly 39,000 compounds. About 220 (0.56%) showed activity. Some of the results follow.
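Note: static incubation at 37 °C against the wild-type strain, values averaged over two biological replicates.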

The assay concerns Escherichia coli K-12 BW25113. Put plainly: relative growth (OD600 normalised to plate interquartile mean) (fraction); higher = less growth inhibition, active = 0.2 or less. The conditions noted are these: 50 µM; LB; incubation time: overnight (16-24 h).
Consider `COc1ccc(S(=O)(=O)N(C)C[C@H]2Oc3ccc(NC(=O)C4CC4)cc3C(=O)N([C@@H](C)CO)C[C@H]2C)cc1`, for which the relative growth is inactive: 1.01.

Regarding `CC[C@H](C)[C@H](NC(=O)[C@H](Cc1ccc(O)cc1)NC(=O)[C@@H](NC(=O)[C@@H](CCCNC(=N)N)NC(=O)[C@@H](N)CC(=O)O)C(C)C)C(=O)N[C@@H](Cc1cnc[nH]1)C(=O)N1CCC[C@@H]1C(=O)N[C@H](Cc1ccccc1)C(=O)O`, the relative growth is inactive: 0.998.

On to `COc1ccc(S(=O)(=O)Nc2cccc3c2O[C@H](CN(C)C(=O)NC(C)C)[C@@H](C)CN([C@@H](C)CO)C3=O)cc1`, for which the relative growth is inactive: 0.996.

`C[C@@H]1CN([C@H](C)CO)C(=O)c2cc(NC(=O)Nc3ccc(C(F)(F)F)cc3)ccc2O[C@H]1CN(C)C(=O)Nc1ccc(C(F)(F)F)cc1`: the relative growth is inactive: 1.02.

For `C[C@H]1CN([C@@H](C)CO)C(=O)Cc2cc(NC(=O)c3ccncc3)ccc2O[C@H]1CN(C)S(=O)(=O)c1cccs1`, the relative growth is inactive: 0.961.

Turning to `N#Cc1cc2[nH]c(=O)c(=O)[nH]c2cc1[N+](=O)[O-]`, the relative growth is inactive: 1.01.

For the compound `COc1ccc(S(=O)(=O)Nc2cccc3c2O[C@H](CN(C)S(=O)(=O)c2cccs2)[C@@H](C)CN([C@H](C)CO)C3=O)cc1`, the relative growth is inactive: 0.984.

`CO[C@@H]1[C@H](O)[C@@H](CO)O[C@H]1n1cc(C)c(N)nc1=O`: the relative growth is inactive: 1.

Consider `C[C@@H]1CN([C@@H](C)CO)S(=O)(=O)c2ccc(-c3ccc(C(=O)N(C)C)cc3)cc2O[C@@H]1CN(C)C(=O)C1CCOCC1`, for which the relative growth was inactive: 1.01.

On to `Cc1noc(C)c1NC(=O)Nc1ccc2c(c1)C(=O)N([C@H](C)CO)C[C@@H](C)[C@H](CN(C)S(=O)(=O)c1ccc(F)cc1)OCCCC[C@@H](C)O2`, for which the relative growth is inactive: 1.02.

As for `O=C(O)[C@@H]1CCCN1`, the relative growth is inactive: 1.02.

For the compound `Cc1cccc(S(=O)(=O)N2C[C@@H](O)COC[C@H]3O[C@H](CC(=O)NCCCN4CCOCC4)CC[C@@H]32)c1`, the relative growth is inactive: 1.

As to `COc1ccc2c3c(n(c2c1)C)[C@H](CO)N(CC1CCCC1)C[C@]13CCN(CC1)C(=O)Nc1ccccc1`, the relative growth was inactive: 1.02.

On to `CC(=O)OCC(=O)C1(OC(C)=O)C(C)CC2C3CC(F)C4=CC(=O)C=CC4(C)C3(F)C(O)CC21C` (stereo unspecified), for which the relative growth was inactive: 0.97.

For `COCC#Cc1cnc2c(c1)C(=O)N([C@@H](C)CO)C[C@@H](C)[C@@H](CN(C)C(=O)Nc1ccc(OC)cc1)O2`, the relative growth is inactive: 1.04.

Consider `C[C@@H]1CN([C@@H](C)CO)S(=O)(=O)c2ccc(C#C[C@@H](C)O)cc2O[C@@H]1CN(C)C(=O)Cc1ccccn1`, for which the relative growth was inactive: 0.989.
